# Source: the supplement of paper PMC8728848
# The list shows a part of the results.
# B1: Pa IMPa (Pseudomonas aeruginosa), Q9I5W4 (protein)
# chain: MSLSTTAFPSLQGENMSRSPIPRHRALLAGFCLAGALSAQAATQEEILDAALVSGDSSQLTDSHLVALRLQQQVERIRQTRTQLLDGLYQNLSQAYDPGAASMWVLPANPDNTLPFLIGDKGRVLASLSLEAGGRGLAYGTNVLTQLSGTNAAHAPLLKRAVQWLVNGDPGAATAKDFKVSVVGVDKTAALNGLKSAGLQPADAACNALTDASCASTSKLLVLGNGASAASLSATVRARLQAGLPILFVHTNGWNQSSTGQQILAGLGLQEGPYGGNYWDKDRVPSSRTRTRSVELGGAYGQDPALVQQIVDGSWRTDYDWSKCTSYVGRTTCDDVPGLSDFSKRVDVLKGALDAYNQKAQNLFALPGTTSLRLWLLWADAVRQNIRYPMDKAADTARFQETFVADAIVGYVREAGAAQKELGSYAGQRQQSMPVSGSEETLTLTLPSAQGFTAIGRMAAPGKRLSIRIEDAGQASLAVGLNTQRIGSTRLWNTRQYDRPRFLKSPDIKLQANQSVALVSPYGGLLQLVYSGATPGQTVTVKVTGAASQPFLDIQPGEDSSQAIADFIQALDADKADWLEIRSGSVEVHAKVEKVRGSIDKDYGGDVQRFIRELNEVFIDDAYTLAGFAIPNQAKTPAIQQECAARGWDCDSETLHKLPGTQHINVDQYAQCGGGCSGNPYDQTWGLNPRGWGESHELGHNLQVNRLKVYGGRSGEISNQIFPLHKDWRVLREFGQNLDDTRVNYRNAYNLIVAGRAEADPLAGVYKRLWEDPGTYALNGERMAFYTQWVHYWADLKNDPLQGWDIWTLLYLHQRQVDKSDWDANKAALGYGTYAQRPGNSGDASSTDGNDNLLLGLSWLTQRDQRPTFALWGIRTSAAAQAQVAAYGFAEQPAFFYANNRTNEYSTVKLLDMSQGSPAWPFP
# Columns and labels:
# Experiment in all cases: glycan array binding signal (z-score within array); higher = stronger binding
# Settings in all cases: glycan notation: IUPAC condensed, linker removed
# [1] = target: Neu5Ac(a2-3)Gal(b1-4)GlcNAc(b1-6)GalNAc
# How it was run: (§1)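 The binding signal is a Z-score computed within each array. Data were drawn from 3228 arrays in the Consortium for Functional Glycomics database, restricted to those with a known protein sequence. Scores were averaged over arrays of the same protein sequence at different concentrations or buffers, and over linkers, and negative values can be taken as non-binding.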
# [2] = target: Neu5Ac(a2-3)Gal(b1-4)GlcNAc(b1-6)[Gal(b1-3)]GalNAc
# How it was run: as §1
# [3] = target: Neu5Ac(a2-3)Gal(b1-4)GlcNAc(b1-6)[Neu5Ac(a2-3)Gal(b1-3)]GalNAc
# How it was run: as §1
# [4] = target: Neu5Ac(a2-3)Gal(b1-4)GlcNAc6S
# How it was run: as §1
# [5] = target: Neu5Ac(a2-3)Gal(b1-4)[Fuc(a1-3)]GlcNAc
# How it was run: as §1
# [6] = target: Neu5Ac(a2-3)Gal(b1-4)[Fuc(a1-3)]GlcNAc(b1-2)Man
# How it was run: as §1
# [7] = target: Neu5Ac(a2-3)Gal(b1-4)[Fuc(a1-3)]GlcNAc(b1-3)Gal
# How it was run: as §1
# [8] = target: Neu5Ac(a2-3)Gal(b1-4)[Fuc(a1-3)]GlcNAc(b1-3)Gal(b1-4)GlcNAc
# How it was run: as §1
# [9] = target: Neu5Ac(a2-3)Gal(b1-4)[Fuc(a1-3)]GlcNAc(b1-3)Gal(b1-4)[Fuc(a1-3)]GlcNAc(b1-3)Gal(b1-4)[Fuc(a1-3)]GlcNAc
# How it was run: as §1
# [10] = target: Neu5Ac(a2-3)Gal(b1-4)[Fuc(a1-3)]GlcNAc(b1-3)GalNAc
# How it was run: as §1
# [11] = target: Neu5Ac(a2-3)Gal(b1-4)[Fuc(a1-3)]GlcNAc(b1-6)[Gal(b1-3)]GalNAc
# How it was run: as §1
# [12] = target: Neu5Ac(a2-3)Gal(b1-4)[Fuc(a1-3)]GlcNAc(b1-6)[Neu5Ac(a2-3)Gal(b1-3)]GalNAc
# How it was run: as §1
# [13] = target: Neu5Ac(a2-3)Gal(b1-4)[Fuc(a1-3)]GlcNAc6S
# How it was run: as §1
# [14] = target: Neu5Ac(a2-3)Gal6S(b1-4)GlcNAc
# How it was run: as §1
# [15] = target: Neu5Ac(a2-3)Gal6S(b1-4)[Fuc(a1-3)]GlcNAc
# How it was run: as §1
# Neu5Ac(a2-3)GalNAc = target: Neu5Ac(a2-3)GalNAc
# How it was run: as §1
# [16] = target: Neu5Ac(a2-3)GalNAc(b1-4)GlcNAc
# How it was run: as §1
# [17] = target: Neu5Ac(a2-3)[GalNAc(b1-4)]Gal(b1-4)Glc
# How it was run: as §1
# [18] = target: Neu5Ac(a2-3)[GalNAc(b1-4)]Gal(b1-4)GlcNAc
# How it was run: as §1
# [19] = target: Neu5Ac(a2-3)[GalNAc(b1-4)]Gal(b1-4)GlcNAc(b1-3)GalNAc
# How it was run: as §1
# [20] = target: Neu5Ac(a2-3)[Neu5Ac(a2-6)]GalNAc
# How it was run: as §1
# Neu5Ac(a2-6)Gal = target: Neu5Ac(a2-6)Gal
# How it was run: as §1
# [21] = target: Neu5Ac(a2-6)Gal(b1-3)GlcNAc(b1-3)[Gal(b1-4)GlcNAc(b1-6)]Gal(b1-4)Glc
# How it was run: as §1
# Neu5Ac(a2-6)Gal(b1-4)Glc = target: Neu5Ac(a2-6)Gal(b1-4)Glc
# How it was run: as §1
# [22] = target: Neu5Ac(a2-6)Gal(b1-4)GlcNAc
# How it was run: as §1
# [23] = target: Neu5Ac(a2-6)Gal(b1-4)GlcNAc(b1-2)Man
# How it was run: as §1
# [24] = target: Neu5Ac(a2-6)Gal(b1-4)GlcNAc(b1-2)Man(a1-3)Man(b1-4)GlcNAc(b1-4)GlcNAc
# How it was run: as §1
# [25] = target: Neu5Ac(a2-6)Gal(b1-4)GlcNAc(b1-2)Man(a1-3)[Gal(b1-4)GlcNAc(b1-2)Man(a1-6)]Man(b1-4)GlcNAc(b1-4)GlcNAc
# How it was run: as §1
# [26] = target: Neu5Ac(a2-6)Gal(b1-4)GlcNAc(b1-2)Man(a1-3)[GlcNAc(b1-4)][Neu5Ac(a2-6)Gal(b1-4)GlcNAc(b1-2)Man(a1-6)]Man(b1-4)GlcNAc(b1-4)GlcNAc
# How it was run: as §1
# [27] = target: Neu5Ac(a2-6)Gal(b1-4)GlcNAc(b1-2)Man(a1-3)[Man(a1-6)]Man(b1-4)GlcNAc(b1-4)GlcNAc
# How it was run: as §1
binder,measurement,setting,value
B1,glycan array binding signal (z-score),[1],-0.564
same,glycan array binding signal (z-score),[2],0.175
same,glycan array binding signal (z-score),[3],-0.048
same,glycan array binding signal (z-score),[4],-0.404
same,glycan array binding signal (z-score),[5],-0.302
same,glycan array binding signal (z-score),[6],0.242
same,glycan array binding signal (z-score),[7],-0.735
same,glycan array binding signal (z-score),[8],-0.079
same,glycan array binding signal (z-score),[9],-0.52
same,glycan array binding signal (z-score),[10],0.169
same,glycan array binding signal (z-score),[11],-0.347
same,glycan array binding signal (z-score),[12],-0.52
same,glycan array binding signal (z-score),[13],0.024
same,glycan array binding signal (z-score),[14],-0.43
same,glycan array binding signal (z-score),[15],0.247
same,glycan array binding signal (z-score),Neu5Ac(a2-3)GalNAc,-0.184
same,glycan array binding signal (z-score),[16],-0.618
same,glycan array binding signal (z-score),[17],-0.664
same,glycan array binding signal (z-score),[18],-0.345
same,glycan array binding signal (z-score),[19],0.22
same,glycan array binding signal (z-score),[20],-0.291
same,glycan array binding signal (z-score),Neu5Ac(a2-6)Gal,-0.562
same,glycan array binding signal (z-score),[21],-0.019
same,glycan array binding signal (z-score),Neu5Ac(a2-6)Gal(b1-4)Glc,0.158
same,glycan array binding signal (z-score),[22],-0.11
same,glycan array binding signal (z-score),[23],-0.409
same,glycan array binding signal (z-score),[24],-0.419
same,glycan array binding signal (z-score),[25],-0.037
same,glycan array binding signal (z-score),[26],0.947
same,glycan array binding signal (z-score),[27],-0.637
